{
  "source": "PubChem BioAssay AID463173",
  "about": "(ICCB-Longwood Screening Facility, Harvard Medical School, 2010)",
  "note": "Out of some 52,000 compounds screened, about 1,700 (3.3%) were called active. No stated cut-off is given here; in the data, active means survival mostly below about 52% (no sharp cut-off); inactive means mostly above about 56%. This is one part of the list.",
  "data": [
    {"system": "Wild type", "experiment": "S. aureus survival, RN4220 and DeltatarO strains – OD600, teichoic acid synthesis inhibitors, primary screen (AID 463173)", "settings": "S. aureus RN4220 wild type/DeltatarO growth, OD600, 18 h, stronger effect = lower value, screened at 18.75 µg/mL (by protocol)", "values": [
      {"smiles": "CCCn1c2ccccc2c2cnn(CC(=O)N3CCC(C(=O)OCC)CC3)c(=O)c21", "survival": "inactive: 87%"},
      {"smiles": "COc1ccccc1NC(=O)N1CCNCC1", "survival": "inactive: 107%"},
      {"smiles": "COc1ccc(C2C(=O)N(C3CCC(C)CC3)CC(=O)N2Cc2ccccc2Cl)cc1OC", "note": "(stereo not given)", "survival": "inactive: 71%"},
      {"smiles": "COC(=O)C1(C(C)C)NC(c2ccccc2OC)C2C(=O)N(C)C(=O)C21", "note": "(stereo not given)", "survival": "inactive: 104%"},
      {"smiles": "O=C(NCCN1CCN(c2ccccc2)CC1)Nc1ccccc1Br", "survival": "inactive: 76%"},
      {"smiles": "Cc1ccc(Sc2c(C)nn(C(=O)COc3ccc(F)cc3)c2C)cc1", "survival": "inactive: 85%"},
      {"smiles": "Cc1cccc(CNC(=O)C2CCN(c3nnc(-n4c(C)ccc4C)s3)CC2)c1", "survival": "inactive: 83%"},
      {"smiles": "Cc1ccc(N2CC(NC(=O)c3ccc(S(=O)(=O)N4CCOCC4)cc3)CC2=O)cc1C", "note": "(stereo not given)", "survival": "inactive: 128%"},
      {"smiles": "Cc1cc2oc(=O)c(CC(=O)O)c(C)c2c2occ(-c3ccc(F)cc3)c12", "survival": "inactive: 56%"},
      {"smiles": "Cc1cccc(-c2noc(CN(C(=O)c3ccccc3Cl)C(C)C)n2)c1", "survival": "inactive: 86%"},
      {"smiles": "O=C(c1ccc2c(c1)OCCO2)N(Cc1cccnc1)c1nc2c(F)cccc2s1", "survival": "inactive: 83%"},
      {"smiles": "COc1ccc(CCNC(=O)CCCn2c(=O)c3ccccc3n(Cc3ccc(F)cc3Cl)c2=O)cc1OC", "survival": "inactive: 125%"},
      {"smiles": "Cn1c(C(=O)NCCc2ccccc2)cc2c(=O)n3ccccc3nc21", "survival": "inactive: 80%"},
      {"smiles": "Cc1ccc(CNc2nc3ccccc3c3nc(-c4cccc(C)c4)nn23)cc1", "survival": "inactive: 26%"},
      {"smiles": "COc1ccc(Cn2c(CNS(=O)(=O)c3ccc4c(c3)CCCC4)nc3cccnc32)cc1", "survival": "inactive: 133%"},
      {"smiles": "CC(=O)Nc1ccc2c(c1)C(=O)N(c1ccccc1)C2=O", "survival": "inactive: 105%"},
      {"smiles": "COc1ccc(CNC(=O)CCc2c(C)nn(-c3ccc(N4CCCCC4)nn3)c2C)c(OC)c1", "survival": "inactive: 64%"},
      {"smiles": "Cc1ccc2c(c1)c1c(c(=O)n(Cc3ccccc3)c(=O)n1Cc1cccc(C(F)(F)F)c1)n2C", "survival": "inactive: 68%"},
      {"smiles": "O=C(c1cnc(N2CCCCC2)c2ccccc12)N1CCN(c2ccccc2F)CC1", "survival": "inactive: 70%"},
      {"smiles": "CCCSc1oc(-c2cccs2)nc1S(=O)(=O)c1ccc(Cl)cc1", "survival": "inactive: 66%"},
      {"smiles": "O=C(CSC1=Nc2ccccc2N=C(c2ccc(F)cc2)C1)NCc1ccccc1", "survival": "inactive: 129%"},
      {"smiles": "CCOC(=O)c1c(N)sc2c1CN(C(=O)OC)N(C(=O)OC)C2", "survival": "inactive: 113%"},
      {"smiles": "Cc1ccc(-n2ncc(C(=O)NCCCN3CCN(c4cccc(Cl)c4)CC3)c2-n2cccc2)cc1", "survival": "inactive: 59%"},
      {"smiles": "CC(=O)N1CCc2cc(CNS(=O)(=O)c3ccc(Br)s3)ccc21", "survival": "inactive: 45%"},
      {"smiles": "c1csc(C2=NC(c3ccncc3)=Nc3ccccc3N2)c1", "survival": "inactive: 93%"}
    ]}
  ]
}
